The supplement of paper PMC11417369
± gives the standard deviation of the averaged measurements. The list shows a part of the results.

System: PfAP2-I AP2 domain 3 (GST-tagged)
Assay: gcPBM binding intensity (ln(normalized median fluorescence intensity)); higher = stronger DNA binding
Summary of the method: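 Using an Agilent 4 × 180k array, primer-extended double-stranded 36-bp intergenic genomic probes and negative controls were exposed for 1 h to GST-fused P. falciparum DNA-binding domains expressed in E. coli. Binding was carried out in 1× PBS with 1% milk, 0.2 mg/ml BSA, 0.5% salmon testes DNA and 0.03% Triton X-100, and protein was detected with Alexa488 anti-GST antibody and a 488 nm scan. Binding intensity is the highest Masliner-normalised natural-log median intensity across replicate spots of either probe orientation.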

“ATTAAATACATTAACACACACACAAATATGTACATA [CACACA_site7372]” and “ATATTATATAATATACGTACATATATTATGCATAAA [XGTACX_site7895]” are within error of each other in “gcPBM binding intensity (ln)” value: 7.93 ± 0.35 for the first, 8.41 ± 0.23 for the second.

“ATAATTTGTGGACACACACACACACCGACATATATA [CACACA_site8718]” and “TTATTCACTTCTTTTTAAAAAAAAAAAAAAAAAAAA [CACACA_negctrl_site223]” are within error of each other in “gcPBM binding intensity (ln)” value: 8.35 ± 0.36 for the first, 8.04 ± 0.83 for the second.

“TTGTTAATGGTACGAACACACATATAAAGATGCATA [CACACA_site2044]” and “ATTTCGAATATTAAGTGTACAATATAAATATATAAA [XGTACX_site6674]” are within error of each other in “gcPBM binding intensity (ln)” value: 7.68 ± 0.57 for the first, 7.75 ± 0.35 for the second.

First: TTATATGAATTTTAGATTTATAATACAAGAATATTC [CACACA_negctrl_site70]
Second: AAAAAAAAAAAAAAAAGTACAAATAAAAAAAAAATA [XGTACX_site4814]
The “gcPBM binding intensity (ln)” value of the first is lower: 7.27 ± 0.58 for the first, 8.54 ± 0.39 for the second.

“TATTTATAATAGTGTACACAATTATAAACTGAATAT [CACACA_site6041]” and “TATTATTGTCTTTCAAAAAAAAAAAAAAAAAAAAAA [CACACA_negctrl_site1242]” are within error of each other in “gcPBM binding intensity (ln)” value: 8.12 ± 0.39 for the first, 8.1 ± 0.79 for the second.

“CAACATATATTAATATGTACATATATATAGATATAT [XGTACX_site4107]” and “TATTATTCATAATTTATCTTTTAAATTAAATCACAA [GTGCAC_negctrl_site288]” are within error of each other in “gcPBM binding intensity (ln)” value: 7.54 ± 0.43 for the first, 7.38 ± 0.42 for the second.

First: TATGTAAAAAATTTAACACACACATATATATATATA [CACACA_site8829]
Second: TTACTTAAGAAACACACACACAAAAAAAAAAAAAAA [CACACA_site946]
The “gcPBM binding intensity (ln)” value of the first is higher: 9.47 ± 0.22 for the first, 8.04 ± 0.38 for the second.

First: ATCATAATCATAAAAAGTACAAACGATAAAATAAAT [XGTACX_site3832]
Second: TTTTTTTCTGTGAGTGCATGTAATAAAATAAATTTA [TGCATGCA_site276]
The “gcPBM binding intensity (ln)” value of the first is lower: 8.01 ± 0.57 for the first, 9.21 ± 0.13 for the second.

Going from “TTCAAAAATATATAATGTACACAAATATAAAAGAAT [XGTACX_site1944]” to “TGTTATTTTAAAAAAAAAATTATTAACTTAAAAAAA [CACACA_negctrl_site1641]”, the “gcPBM binding intensity (ln)” value falls from 8.2 ± 0.38 to 7.29 ± 0.52.

“AATAATAACACCGTGGATACACAATAACAAAGAACT [CACACA_negctrl_site532]” and “AAATATTTTTTTTCTACACACATACAAATATATATT [CACACA_site5325]” are within error of each other in “gcPBM binding intensity (ln)” value: 8.14 ± 1 for the first, 8.05 ± 0.69 for the second.

“TTTCATTTAGCTTTTACACACTATATATCATTGATT [CACACA_site6158]” and “TGAGAGTTCTCATATGCACACAAAAAACTTTCATTT [CACACA_site7898]” are within error of each other in “gcPBM binding intensity (ln)” value: 7.89 ± 0.68 for the first, 8.51 ± 0.43 for the second.

“TTGCAACTCTTCAATCGTACACATTATTTATTATAT [XGTACX_site1377]” and “TACATATACATATACACACACACACCCAAATAAATA [CACACA_site1344]” are within error of each other in “gcPBM binding intensity (ln)” value: 7.97 ± 0.35 for the first, 8.52 ± 0.54 for the second.

“GAAAAAAAAAAAAAAAAAAAAAGGAAAAAAGTGAAA [CACACA_negctrl_site996]” and “GAATAAATAGACGAGTGTACTTTTTTTTAAAAAAAA [XGTACX_site7880]” are within error of each other in “gcPBM binding intensity (ln)” value: 7.33 ± 0.68 for the first, 8.02 ± 0.26 for the second.

“ACGTTTACGTTATTATGTACGTAATATATCATACCT [XGTACX_site5006]” and “ATAAAACAATAAAATTGTACATAAATTGATTATACT [XGTACX_site6723]” are within error of each other in “gcPBM binding intensity (ln)” value: 7.64 ± 0.51 for the first, 7.58 ± 0.36 for the second.

“AATTAAATTAGAAGCACACACATATTTATATTTATA [CACACA_site7552]” and “GTATATATTTAAACACGTACACAAAACCCAAAAAAT [XGTACX_site8110]” are within error of each other in “gcPBM binding intensity (ln)” value: 7.93 ± 0.41 for the first, 8.51 ± 0.25 for the second.

Compared with “ATACACTCACTCACACGTACAGACAACGGACGATCA [XGTACX_site1097]”, TTATTATAATCATTAGTGCATATATTATTTTTATAT is higher in “gcPBM binding intensity (ln)” value: 8.27 ± 0.33 for the first, 9.795 ± 0.049 for the second.

Going from “TATATACATATATGTACACACATTACAGATGTACAT [CACACA_site966]” to “AATCTAATATAATGCACACATAAAAAAAAAATCAAA [CACACA_site2714]”, the “gcPBM binding intensity (ln)” value rises from 8.21 ± 0.18 to 10.7 ± 0.74.

“TATATTTACAATAAAACGTTATTTTTTGTTATTTTC [CACACA_negctrl_site612]” and “CATATTTTTAAATACACACACATAAAAAAAAAAAAA [CACACA_site1095]” are within error of each other in “gcPBM binding intensity (ln)” value: 7.48 ± 0.48 for the first, 8.04 ± 0.36 for the second.

Compared with “TTTTTTTTAAAAAACACACACCTAAACAAGATATTT [CACACA_site6541]”, “AAAAATATAAACTGCACACACACAAAAAAAGAAAAA [CACACA_site648]” is higher in “gcPBM binding intensity (ln)” value: 7.93 ± 0.57 for the first, 8.82 ± 0.14 for the second.

“AAATAAAAAAGTAGTACACACTTCACGATATTTTTT [CACACA_site6015]” and “TAAGAATAATGACATAGTACAATTTAATAGATCTAA [XGTACX_site3670]” are within error of each other in “gcPBM binding intensity (ln)” value: 7.89 ± 0.43 for the first, 7.37 ± 0.55 for the second.

First: AAGTTTATTTGTTGCACACATATAAGTAGAGAAAAT [CACACA_site3027]
Second: TTTTCAAAATAATATTATATCAAATGCTAAAAAGAA [TGCATGCA_negctrl_site588]
The “gcPBM binding intensity (ln)” value of the first is higher: 9.42 ± 0.071 for the first, 7.86 ± 0.49 for the second.

Going from “TTACGTTATATACATACACACCCACGCACAAAAAAA [CACACA_site6537]” to “TACAGATATTATTGCACACATATAAAATACCCCCAA [CACACA_site6014]”, the “gcPBM binding intensity (ln)” value rises from 8.7 ± 0.4 to 10.4 ± 0.47.

First: ATTAAATACTTCGATTGTACAATTTTTTTTTTTTTT [XGTACX_site832]
Second: ATATATATATATCACCGTACTTATATAATAACATGA [XGTACX_site4398]
The “gcPBM binding intensity (ln)” value of the first is lower: 7.79 ± 0.4 for the first, 9.29 ± 0.3 for the second.

Going from “ATAATATTCGAGTGTGCACACAAACATACATATATA [CACACA_site3396]” to “ATTTTTATTAAAATATGTACGTATTTTACTCATACA [XGTACX_site5330]”, the “gcPBM binding intensity (ln)” value falls from 9.54 ± 0.24 to 7.83 ± 0.59.

“ATACAGAAAAAAAACACACACACATAATATACATAC [CACACA_site1933]” and “ACAGATATATTTATTTGTACATATCACCAAAATGGA [XGTACX_site5644]” are within error of each other in “gcPBM binding intensity (ln)” value: 8.03 ± 0.57 for the first, 7.54 ± 0.59 for the second.

First: TTTTTTTTTTATTTTTGTACATATATTTCAGTATTA [XGTACX_site8396]
Second: TAATTATTCTATTAAGTGCATATATTTTTAAAAAGA
The “gcPBM binding intensity (ln)” value of the first is lower: 8.06 ± 0.75 for the first, 9.89 ± 0.3 for the second.

“TTAATATAATAAAATCGTACAAATAAAATATAAAAT [XGTACX_site8730]” and “AACCAATATGAGTATACACACATAAATATAAATATA [CACACA_site5968]” are within error of each other in “gcPBM binding intensity (ln)” value: 8.06 ± 0.52 for the first, 7.55 ± 0.4 for the second.

Going from “AAAAAAAAAAAAGATACACACAAAAATGGATATATA [CACACA_site7069]” to “AAAAATGAGAAACACACACACATATATATATATATA [CACACA_site2228]”, the “gcPBM binding intensity (ln)” value rises from 7.39 ± 0.63 to 9.29 ± 0.47.

In the case of “TCTTTAAATCGAGTGTTAAATAATATAATATAAAAA [CACACA_negctrl_site1507]”, the “gcPBM binding intensity (ln)” value is reported as 7.7 ± 0.53.
